From patent US20170224662A1 (priority 2016, published 2017)
The source gives many values for each of these; only a part stands here.

Assay: 1- and 2-week accelerated stability of CPMM (~0.3 mg/mL) in aqueous pH buffer media, HPLC purity
Type: physicochemical
Experimental: The aqueous CPMM pH 1-9 samples described above were diluted as necessary to approximately 0.3 mg/mL and placed on accelerated stability at 25° C./60% relative humidity and 40° C./75% relative humidity conditions for two weeks. Samples were pulled at t=0, 1, and 2 weeks from set-up, and analyzed by HPLC. Samples were diluted to approximately 0.3 mg/mL, which well below the HPLC method nominal concentration, due to concerns of precipitation during the two week stability study. The injection volume was increased to compensate for the lower drug concentration in solution. The change in CPMM purity over the study duration is listed in Table 3 and plotted in FIGS. 3-5.
The pH 1 sample was placed on stability at a non-diluted concentration due to an error. This sample was re-diluted at the one-week time point to match the concentration in the pH 2-9 samples and re-placed on stability. The pH 9 sample results were not included in FIGS. 3-5 due to excessive degradation and for easier visual assessment over the more relevant pH 2-8 range.

COC(=O)C1(OC(=O)c2cncn2[C@H](C)c2ccccc2)CC1 [CPMM, 1-(methoxycarbonyl)cyclopropyl-1-[(1R)-1-phenylethyl]-1H-imidazole-5-carboxylate]
Change in CPMM % Purity (pH 2 (Phosphoric Acid), 25° C./60% RH, t = 1 week): −1.64% | Change in CPMM % Purity (pH 2 (Phosphoric Acid), 25° C./60% RH, t = 2 week): −3.25% | Change in CPMM % Purity (pH 2 (Phosphoric Acid), 40° C./75% RH, t = 1 week): −6.03% | Change in CPMM % Purity (pH 2 (Phosphoric Acid), 40° C./75% RH, t = 2 week): −12.13% | Change in CPMM % Purity (pH 3 (Phosphoric Acid), 25° C./60% RH, t = 1 week): −1.53% | Change in CPMM % Purity (pH 3 (Phosphoric Acid), 25° C./60% RH, t = 2 week): −3.16% | Change in CPMM % Purity (pH 3 (Phosphoric Acid), 40° C./75% RH, t = 1 week): −5.36% | Change in CPMM % Purity (pH 3 (Phosphoric Acid), 40° C./75% RH, t = 2 week): −10.87% | Change in CPMM % Purity (pH 4 (Citric Acid), 25° C./60% RH, t = 1 week): −0.95% | Change in CPMM % Purity (pH 4 (Citric Acid), 25° C./60% RH, t = 2 week): −2.00% | Change in CPMM % Purity (pH 4 (Citric Acid), 40° C./75% RH, t = 1 week): −3.43% | Change in CPMM % Purity (pH 4 (Citric Acid), 40° C./75% RH, t = 2 week): −6.99% | Change in CPMM % Purity (pH 7 (Phosphoric Acid), 40° C./75% RH, t = 1 week): −2.90% | Change in CPMM % Purity (pH 7 (Phosphoric Acid), 40° C./75% RH, t = 2 week): −5.62% | Change in CPMM % Purity (pH 8 (Phosphoric Acid), 25° C./60% RH, t = 1 week): −1.76% | Change in CPMM % Purity (pH 8 (Phosphoric Acid), 25° C./60% RH, t = 2 week): −3.62% | Change in CPMM % Purity (pH 8 (Phosphoric Acid), 40° C./75% RH, t = 1 week): −11.39% | Change in CPMM % Purity (pH 8 (Phosphoric Acid), 40° C./75% RH, t = 2 week): −22.20% | Change in CPMM % Purity (pH 9 (Boric Acid), 25° C./60% RH, t = 1 week): −25.38% | Change in CPMM % Purity (pH 9 (Boric Acid), 25° C./60% RH, t = 2 week): −44.67% | Change in CPMM % Purity (pH 9 (Boric Acid), 40° C./75% RH, t = 1 week): −78.47% | Change in CPMM % Purity (pH 9 (Boric Acid), 40° C./75% RH, t = 2 week): −92.14%
